Several values for one entry are separate records, joined by “and”; a condition that tells them apart may be missing. Equal entries are not always repeated. About 64,000 (15%) of roughly 420,000 compounds were called active. Inconclusive means that the source gave no clear call. Such entries were picked first, then a sample of the others. Calls come from the whole dose curve; as a rule, active = well fitted inhibition curve with a large enough effect; inconclusive = small, poorly fitted or top-dose-only effect; inactive = flat fitted curve, though single readings scatter. A potency beside an inconclusive call is a rough fit, not a confirmed value.
Assay: qHTS for Inhibitors of human tyrosyl-DNA phosphodiesterase 1 (TDP1): qHTS in cells in absence of CPT; note: nearly all actives have a fitted effect of over 55% in size
Conditions: DT40 Tdp1-/- hTDP1 cells, no CPT, ATP luminescence, 48 h; series mostly up to 46.2 µM
Procedure, shortened: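 No-CPT arm: Tdp1-/-;hTDP1 DT40 cells (400/well) plus compounds, incubated ≥48 hr at 37 °C. Readout CellTiter-Glo luminescence.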
Potency is the fitted concentration of half-maximal effect; tags give direction and shape of the fitted curve.

SMILES | Potency
COc1ccccc1OCC(=O)N/N=C1/SCC(=O)N1Cc1ccccc1 | inactive
CC(=O)c1ccc(N2CCN(c3ccc(S(=O)(=O)NCCN(C)C)cc3[N+](=O)[O-])CC2)cc1 | inconclusive: 25.9 µM [inhibitor, single point]
Cc1ccc(NC(=O)CSc2cccc3cccnc23)c(C)c1 | inconclusive: 29.1 µM [inhibitor, single point]
COc1ccc(-c2ccc(SCC(=O)Nc3nnc(C)s3)nn2)cc1 | inconclusive: 18.4 µM [inhibitor, partial curve]
Fc1ccc(-c2csc3ncnc(N4CCc5ccccc5C4)c23)cc1 | inconclusive: 16.4 µM [inhibitor, single point]
COc1cccc(C2=NN(C(=O)c3ccccc3)C(O)(C(F)(F)F)C2)c1 (configuration not stated) | active: 20.6 µM
COc1ccc(OCc2nc(C#N)c(NCc3ccccc3Cl)o2)cc1 | inconclusive: 29.1 µM [inhibitor, single point]
Cc1cc(C)c(-c2csc(Cc3nc(-c4cc5ccccc5oc4=O)cs3)n2)cc1C | active: 14.6 µM
O=C(CSCc1c(Cl)cccc1Cl)NCC1CCCO1 (configuration not stated) | inconclusive: 16.4 µM [inhibitor, single point]
COc1ccc(CCNC(=O)C(=O)NCC2CCCN2S(=O)(=O)c2cccs2)cc1 (configuration not stated) | inconclusive: 23.1 µM [inhibitor, single point]
CC(C)(C)[C@H]1COC(=O)[C@H](NC(=O)OCC2c3ccccc3-c3ccccc32)C/C=C\C[C@@H](CC(=O)N[C@H](CO)Cc2ccccc2)C(=O)N1 | active: 8.2 µM
Cc1ccccc1N(CC(=O)N/N=C/c1cc(C)n(-c2ccccc2C)c1C)S(C)(=O)=O | inconclusive: 29.1 µM [inhibitor, single point]
CSc1ccc(/C=C2\C=Cc3cc([N+](=O)[O-])ccc32)cc1 | active: 15.8 µM
O=C(NCC1CCCN1S(=O)(=O)c1cccs1)c1ccc(Cl)cc1 (configuration not stated) | inconclusive: 29.1 µM [inhibitor, single point]
C/C(CC(=O)Nc1cccc(C(F)(F)F)c1)=N\NC(=O)C(=O)NCC(C)C | inactive
Cc1nn(C)c(C)c1NC(=O)CC12CC3CC(CC(C3)C1)C2 | inconclusive: 29.1 µM [inhibitor, single point]
COc1ccccc1N1CCN(S(=O)(=O)c2ccc(-n3cnnn3)cc2)CC1 | inconclusive: 10.3 µM [inhibitor, partial curve] and inconclusive: 20.6 µM [inhibitor, single point]
COCCNC(=O)C1(C)CCCN(C(=O)c2ccc(-c3ccccc3)cc2)C1 (configuration not stated) | inconclusive: 18.4 µM [inhibitor, single point]
CCOc1ccc(NC(=O)CN(C)C(=O)CN2C(=O)NC3(CCCC3)C2=O)cc1OCC | inconclusive: 23.1 µM [inhibitor, single point]
CCOC(=O)N1CCc2c(sc3c2c(=O)n(-c2ccc(CC)cc2)c(=O)n3Cc2cccc(OC)c2)C1 | inconclusive: 23.1 µM [inhibitor, single point]
CCc1nc2c(OCc3ccc(F)cc3)cccn2c1N(C)C(=O)c1ccc(C)cc1 | inconclusive: 18.4 µM [inhibitor, single point]
C=CCn1c(SCC(=O)NC2CCS(=O)(=O)C2)nnc1-c1cc2c(s1)CCC(CC)C2 (configuration not stated) | inconclusive: 29.1 µM [inhibitor, single point]
N#Cc1cccc(NC(=O)COC(=O)Cn2nc(-c3ccccc3)oc2=O)c1 | inactive

SMILES | Potency
COc1ccccc1OCCn1cc(/C=N/NC(=O)c2ccncc2)c2ccccc21 | active: 18.4 µM
CC(=O)NC(c1cccc(F)c1)c1nc(-c2cc(F)cc(Cl)c2)cs1 (configuration not stated) | inactive
Cc1ccc(C)c(S(=O)(=O)N2CCN(C(=O)c3ccc(-n4cncn4)c([N+](=O)[O-])c3)CC2)c1 | inconclusive: 20.6 µM [inhibitor, single point]
COC(=O)c1cccc(Nc2nc3ccccc3nc2C)c1 | inconclusive: 20.6 µM [inhibitor, single point]
CC(=O)Nc1cccc(NC(=O)Cc2csc(COc3cccc(C)c3)n2)c1 | active: 20.6 µM
Cc1cc(NC(=O)C(C)SCC(=O)Nc2nc3c(F)cc(F)cc3s2)no1 (configuration not stated) | inconclusive: 11.6 µM [inhibitor, single point]
O=C(COc1ccc2c(C(F)(F)F)cc(=O)oc2c1)Nc1ccc2c(c1)OCCO2 | inactive
CC(C)c1ccc(/C=C/C(=O)NCCC2=CCCCC2)cc1 | inconclusive: 29.1 µM [inhibitor, single point]
CC1CCOC(c2coc3ccccc3c2=O)O1 (configuration not stated) | inactive
Cc1cc(C)n2nc(CNS(=O)(=O)c3ccc([N+](=O)[O-])cc3)nc2n1 | inactive
Cc1cc(C(C)(C)C)ccc1OCCn1ccnc1 | inconclusive: 35.5 µM [inhibitor, single point]
CCOC(=O)N1CCC(NC(=O)c2cc(-c3ccc(OC)cc3)nc3ccccc23)CC1 | inconclusive: 23.1 µM [inhibitor, single point]
COC(=O)C1=C(C(=O)OC)[C@@H]2Nc3ccccc3[C@@]23C[C@@H](C(=O)OC)N(C(=O)COCc2ccccc2)C3=N1 | inactive
O=C(Nc1ccccc1N(C(=O)c1ccco1)S(=O)(=O)c1cccs1)c1ccco1 | inconclusive: 16.4 µM [inhibitor, single point]
O=C(NC1CCCC1)C(C1CC1)n1c(C2CCCC2)nc2ccccc21 (configuration not stated) | inconclusive: 18.4 µM [inhibitor, partial curve]
COc1ccc(CC(=O)N2CCN(c3ccc(C4=NNC(=O)CC4C)cc3)CC2)cc1 (configuration not stated) | inconclusive: 23.1 µM [inhibitor, single point]
Cc1nn(-c2ccccc2Cl)c2sc(C(=O)Nc3nnc(C4CC4)s3)cc12 | inconclusive: 29.1 µM [inhibitor, single point]
CCC(C(=O)Nc1cc(C)ccc1OC)n1nnc(C(=O)OC)c1C(=O)OC (configuration not stated) | inactive
CCOc1ccc(C2c3c(oc4cc(C)c(C)cc4c3=O)C(=O)N2c2ccccn2)cc1 (configuration not stated) | inactive
COc1cc(C)ccc1OCCOCCOc1cc(C)c(C)cc1Br | inconclusive: 20.6 µM [inhibitor, single point]
O=C(NCc1ccc2c(c1)OCO2)c1ccc(NS(=O)(=O)c2ccc3c(c2)OCCO3)cc1 | inactive
CCOc1ccc(C(=O)Nc2ccc3c(c2)N(C(C)=O)CCC3)cc1OCC | active: 20.6 µM
CCCOC(=O)c1c(NC(=O)C2CCCO2)sc(C(=O)OC)c1C (configuration not stated) | inconclusive: 29.1 µM [inhibitor, single point]

SMILES | Potency
COc1c(Cl)cc(C(=O)Nc2ccccc2C(=O)O)cc1Cl | inactive
COc1ccc(NC(=O)CCNC(=O)Cn2cnc3sc4c(c3c2=O)CCCC4)c(OC)c1 | inconclusive: 29.1 µM [inhibitor, partial curve, poor fit]
CC(C)(C)c1nc(SCC(=O)Nc2ccc3c(c2)OCCO3)c2ccccc2n1 | inconclusive: 25.9 µM [inhibitor, single point]
O=C1C2CC=CCC2C(=O)N1c1n[nH]c(Cc2ccccc2)n1 (configuration not stated) | inactive
CC(=O)Nc1ccc(S(=O)(=O)Nc2nc3n(n2)C(c2ccccc2)C=C(c2ccc(Cl)cc2)N3)cc1 (configuration not stated) | inactive
CCCCCCn1c(=O)n2n(c1=O)C[C@]1(OC(=O)NCc3ccccc3F)CN(S(=O)(=O)c3ccc(C)cc3)C[C@]1(O)C2 | active: 14.6 µM
Cc1ccc(-n2nc3c(N4CCC(C(=O)N(C)Cc5ccccc5)CC4)nnc(C)c3c2C)cc1 | inactive
COc1ccccc1-c1nc(-c2ccccc2)nc(N2CCN(C)CC2)c1C#N | inconclusive: 18.4 µM [inhibitor, partial curve]
O=C(NCCCN1CCCC1=O)c1ccc(Cl)c(NS(=O)(=O)c2ccc(F)cc2)c1 | inactive
Cc1ccccc1NC(=O)c1ccccc1NC(=O)Cc1cccc2ccccc12 | inconclusive: 16.4 µM [inhibitor, partial curve]
CC(=O)Nc1ccc(CN(C)c2c(C)nc3ccc(C(=O)N(C)Cc4ccco4)cn23)cc1 | inconclusive: 14.6 µM [inhibitor, partial curve]
c1csc(Cc2nc(-c3ccc(-n4cccc4)cc3)no2)c1 | inactive
CN(C)c1ccc(CN(Cc2ccco2)C(=O)c2ccc(F)cc2)cc1 | inconclusive: 16.4 µM [inhibitor, single point]
O=c1[nH]c(COc2ccc(Cl)cc2Cl)nc2ccccc12 | inactive
Cc1ccccc1CN1CCCC(C(=O)Nc2ccccc2Oc2cccnc2)C1 (configuration not stated) | inconclusive: 29.1 µM [inhibitor, single point]
O=C(NCCN1CCCCC1)c1ccc(Cn2c(SCc3ccc(F)cc3)nc3cccnc32)cc1 | inconclusive: 29.1 µM [inhibitor, single point]
COc1ccc(/C=c2/sc3nc(-c4ccccc4)c(-c4ccccc4)n3c2=O)cc1 | inconclusive: 18.4 µM [inhibitor, single point]
CC(/C=C/c1ccccc1)=N\NC(=S)NC(C)C | active: 10.3 µM
Cc1ccc(S(=O)(=O)N2C[C@H]3C(=O)C[C@@H](c4ccccc4)N(S(=O)(=O)c4ccc(C)cc4)[C@H]3C[C@H]2c2ccccc2Cl)cc1 | inactive
CN1CCN(C(=S)c2cn(Cc3ccc(F)cc3)c3ccccc23)CC1 | inconclusive: 18.4 µM [inhibitor, single point]
COc1cc(COCC(O)CN2CCN(Cc3ccc4c(c3)OCO4)CC2)cc(OC)c1OC (configuration not stated) | inactive

From PubChem BioAssay AID686978 (National Center for Advancing Translational Sciences (NCATS), 2013)
